{"source": "patent US20100047166A1", "about": "“ANTIBODIES AND RELATED MOLECULES THAT BIND TO 58P1D12 PROTEINS” (priority 2008, published 2010)", "molecules": {"B1": {"name": "recombinant antibody: recombinant monoclonal antibody secreted from CHO cells transfected with the sequence from clone 1-B3 and Ha8-4c4.1 VH (antibody, V domains shown)", "VH": "QVQLQESGPGLVKPSETLSLTCTVSGGSVSSGGYYWSWIRQPPGKGLEWIGYIYYSGGTNYNPSLKSRVTISVDTSKNQFSLKLTSVTAADTAVYYCARESGYCTNVACFPDAFDIWGQGTMVTVSS", "VL": "DIVMTQSPDSLAVSLGERATINCKSSQGVLYSSNNKNYLAWYQQKPGQPPKLLIYWASTRESGVPDRFSGSGSGTDFTLTISSLQAEDVAVYFCQQYYVSPLTFGGGTKVEIKR"}}, "molecular_target": "T1, 58P1D12 protein (Homo sapiens, UniProt Q9H9P2)", "T1 sequence (Q9H9P2 22-273)": "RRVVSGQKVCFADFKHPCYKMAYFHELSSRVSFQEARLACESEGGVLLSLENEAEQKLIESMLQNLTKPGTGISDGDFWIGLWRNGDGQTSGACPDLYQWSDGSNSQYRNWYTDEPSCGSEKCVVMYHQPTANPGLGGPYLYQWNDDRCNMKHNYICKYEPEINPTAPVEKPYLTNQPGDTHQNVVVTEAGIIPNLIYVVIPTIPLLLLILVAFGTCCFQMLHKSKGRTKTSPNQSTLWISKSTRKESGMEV", "assay": "Binding of CHO-expressed recombinant antibody to 58P1D12 protein", "settings": "antibody secreted from CHO cells", "excerpt": "The 1-B3 and 2-A7 expression vectors were co-transfected with constant and heavy chain sequences to permit the assembly of recombinant monoclonal antibodies. […] The inability of the 2-A7 sequence to support the recombinant expression of monoclonal antibodies taken with the molecular weight data discussed above implies that the 2-A7 light chain is not processed to remove the leader sequence. If this hypothesis is correct, the 2-A7 light chain retaining the leader sequence might explain the lack of secretion of a properly assembled monoclonal antibody."}
{"molecule": "B1", "values": [{"measurement": "binding affinity to 58P1D12 protein relative to hybridoma-secreted monoclonal antibodies", "result": "same affinity"}]}
